# According to the supplement of paper PMC4604168 (melanoma cell lines):
# The other results are listed elsewhere or left out. Many values rest on one well or one pass, so single values are uncertain.
# Tested on: WM1745
# Assay: cell count relative to DMSO control; melanoma cells; higher = more viable cells
# Details: library dose: standard library concentration; 72 h
# 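Note: cells treated in 1,536-well plates, then fixed and DAPI-stained, with nuclei counted from automated high-throughput microscope images.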
row,SMILES,cell count
1,"COc1cc2c(Oc3ccc4[nH]c(C)cc4c3F)ncnc2cc1OCCCN1CCCC1 [cediranib] + N#Cc1c(O)c2c(-c3ccc(-c4ccccc4O)cc3)csc2[nH]c1=O [A769662] (first compound 2 µM, partner dose 10 µM)",83.5%
2,"CC(C)(C)c1cnc(CSc2cnc(NC(=O)C3CCNCC3)s2)o1 + CN(C)S(=O)(=O)c1ccc2c(c1)/C(=C/c1cc3c([nH]1)CCCC3)C(=O)N2 [SU6656] (first compound 0.05 µM, partner dose 2 µM)",58.4%
3,"COc1cc2c(Oc3ccc4[nH]c(C)cc4c3F)ncnc2cc1OCCCN1CCCC1 [cediranib] + COc1ccc(COc2ccc(Cc3cnc(N)nc3N)cc2OC)cc1 [GW2580] (first compound 2 µM, partner dose 5 µM)",105%
4,"CCCCCCCCc1ccc(CCC(N)(CO)CO)cc1 [fingolimod] + OCCn1cc(-c2cnc3nnn(Cc4ccc5ncccc5c4)c3n2)cn1 [PF04217903] (first compound 10 µM, partner dose 5 µM)",43.8%
5,"NC(=O)c1ccc(N(C(N)=O)c2c(F)cccc2F)nc1-c1ccc(F)cc1F + Clc1ccc(Nc2nnc(Cc3ccncc3)c3ccccc23)cc1 [vatalanib] (first compound 2 µM, partner dose 10 µM)",53.7%
6,"CCc1ccc(CCOc2ccc(CC3SC(=O)NC3=O)cc2)nc1 (centres undefined) [pioglitazone] + CC(C)CCN1c2nc(Nc3cc(F)c(O)c(F)c3)ncc2N(C)C(=O)C1C [BID1870] (first compound 10 µM, partner dose 1 µM)",76.2%
7,"Cc1ccc(NC(=O)c2cccc(N(C)C)c2)cc1NC(=O)c1ccc(O)cc1 + CN(C)S(=O)(=O)c1ccc2c(c1)/C(=C/c1cc3c([nH]1)CCCC3)C(=O)N2 [SU6656] (first compound 10 µM, partner dose 2 µM)",42.8%
8,"NC(=O)c1ccc(N(C(N)=O)c2c(F)cccc2F)nc1-c1ccc(F)cc1F + Cc1cc(N2CCOCC2)cc2[nH]c(-c3c(NC[C@@H](O)c4cccc(Cl)c4)cc[nH]c3=O)nc12 [BMS536924] (first compound 2 µM, partner dose 1 µM)",51.5%
9,"Cc1ccc(NC(=O)c2cccc(N(C)C)c2)cc1NC(=O)c1ccc(O)cc1 + CCCCCCCCCCCC1=C(O)C(=O)C=C(O)C1=O [Embelin] (first compound 10 µM, partner dose 6 µM)",62.6%
10,"CN(NC(=O)CC(=O)NN(C)C(=S)c1ccccc1)C(=S)c1ccccc1 + Cn1cc(/C=C2\C(=O)Nc3cccnc32)c2ccccc21 [GW441756] (first compound 0.03 µM, partner dose 2 µM)",30.3%
11,"CCCCCCCCc1ccc(CCC(N)(CO)CO)cc1 [fingolimod] + O=C(O)[C@@H]1[O][Sb](=[O])([O][Sb]2(=[O])[O][C@H]([C@H](O)CO)[C@H](O)[C@H](C(=O)O)[O]2)[O][C@H]([C@H](O)CO)[C@@H]1O [stibogluconate] (first compound 10 µM, partner dose 10 µM)",66.6%
12,"Cc1ccc(NC(=O)c2cccc(N(C)C)c2)cc1NC(=O)c1ccc(O)cc1 + COc1cc(N2CCC(N3CCN(C)CC3)CC2)ccc1Nc1ncc(Cl)c(Nc2ccccc2S(=O)(=O)C(C)C)n1 [NVP-TAE684] (first compound 10 µM, partner dose 0.4 µM)",44%
13,"COc1cc2c(Oc3ccc4[nH]c(C)cc4c3F)ncnc2cc1OCCCN1CCCC1 [cediranib] + COc1cc(N2CCC(N3CCN(C)CC3)CC2)ccc1Nc1ncc(Cl)c(Nc2ccccc2S(=O)(=O)C(C)C)n1 [NVP-TAE684] (first compound 2 µM, partner dose 0.4 µM)",40.1%
14,"COc1cc2c(Oc3ccc4[nH]c(C)cc4c3F)ncnc2cc1OCCCN1CCCC1 [cediranib] + Cn1cc(/C=C2\C(=O)Nc3cccnc32)c2ccccc21 [GW441756] (first compound 2 µM, partner dose 2 µM)",61.3%
15,"COc1cc2c(Oc3ccc4[nH]c(C)cc4c3F)ncnc2cc1OCCCN1CCCC1 [cediranib] + Oc1cc(-c2nc(-c3ccccc3)[nH]c2-c2ccncc2)ccc1Cl [L779450] (first compound 2 µM, partner dose 1 µM)",46%
16,"NC(=O)c1ccc(N(C(N)=O)c2c(F)cccc2F)nc1-c1ccc(F)cc1F + Cc1nc(Nc2ncc(C(=O)Nc3c(C)cccc3Cl)s2)cc(N2CCN(CCO)CC2)n1 [dasatanib] (first compound 2 µM, partner dose 0.02 µM)",34.1%
17,"CC(C)(C)c1cnc(CSc2cnc(NC(=O)C3CCNCC3)s2)o1 + c1cc(-c2cnn3cc(-c4ccc(OCCN5CCCCC5)cc4)cnc23)ccn1 [Dorsomorphin] (first compound 0.05 µM, partner dose 2 µM)",33.6%

row,SMILES,cell count
1,"CC(C)(C)c1cnc(CSc2cnc(NC(=O)C3CCNCC3)s2)o1 + C[C@@H]1CCN(C(=O)CC#N)C[C@@H]1N(C)c1ncnc2[nH]ccc12 [CP690550] (first compound 0.05 µM, partner dose 5 µM)",67.6%
2,"CC(C)(C)c1cnc(CSc2cnc(NC(=O)C3CCNCC3)s2)o1 + Oc1nc(-c2ccc(C(F)(F)F)cc2)nc2c1CSCC2 [XAV939] (first compound 0.05 µM, partner dose 10 µM)",89.9%
3,"NC(=O)c1ccc(N(C(N)=O)c2c(F)cccc2F)nc1-c1ccc(F)cc1F + C=C(c1ccc(C(=O)O)cc1)c1cc2c(cc1C)C(C)(C)CCC2(C)C [Bexarotene] (first compound 2 µM, partner dose 10 µM)",95.2%
4,"CCc1ccc(CCOc2ccc(CC3SC(=O)NC3=O)cc2)nc1 (centres undefined) [pioglitazone] + N#Cc1c(O)c2c(-c3ccc(-c4ccccc4O)cc3)csc2[nH]c1=O [A769662] (first compound 10 µM, partner dose 10 µM)",92.1%
5,"CC(C)(C)c1cnc(CSc2cnc(NC(=O)C3CCNCC3)s2)o1 + Cc1cc([N+](=O)[O-])ccc1NS(=O)(=O)c1cc(Cl)ccc1Cl [FH535] (first compound 0.05 µM, partner dose 5 µM)",75.3%
6,"NC(=O)c1ccc(N(C(N)=O)c2c(F)cccc2F)nc1-c1ccc(F)cc1F + CN(c1ncccc1CNc1nc(Nc2ccc3c(c2)CC(=O)N3)ncc1C(F)(F)F)S(C)(=O)=O [PF562271] (first compound 2 µM, partner dose 0.4 µM)",58.4%
7,"Cc1ccc(NC(=O)c2cccc(N(C)C)c2)cc1NC(=O)c1ccc(O)cc1 + Cc1cc(N2CCOCC2)cc2[nH]c(-c3c(NC[C@@H](O)c4cccc(Cl)c4)cc[nH]c3=O)nc12 [BMS536924] (first compound 10 µM, partner dose 1 µM)",50.7%
8,"Cc1ccc(NC(=O)c2cccc(N(C)C)c2)cc1NC(=O)c1ccc(O)cc1 + Cn1cc(/C=C2\C(=O)Nc3cccnc32)c2ccccc21 [GW441756] (first compound 10 µM, partner dose 2 µM)",70.6%
9,"CC(C)(C)c1cnc(CSc2cnc(NC(=O)C3CCNCC3)s2)o1 + OCCn1cc(-c2cnc3nnn(Cc4ccc5ncccc5c4)c3n2)cn1 [PF04217903] (first compound 0.05 µM, partner dose 5 µM)",70.9%
10,"NC(=O)c1ccc(N(C(N)=O)c2c(F)cccc2F)nc1-c1ccc(F)cc1F + CCCCCCCCc1ccc(CCC(N)(CO)CO)cc1 [fingolimod] (first compound 2 µM, partner dose 10 µM)",11%
11,"NC(=O)c1ccc(N(C(N)=O)c2c(F)cccc2F)nc1-c1ccc(F)cc1F + C[C@@H](Oc1cc(-c2cnn(C3CCNCC3)c2)cnc1N)c1c(Cl)ccc(F)c1Cl [Crizotinib] (first compound 2 µM, partner dose 1 µM)",61.1%
12,"CCCCCCCCc1ccc(CCC(N)(CO)CO)cc1 [fingolimod] + C=C(c1ccc(C(=O)O)cc1)c1cc2c(cc1C)C(C)(C)CCC2(C)C [Bexarotene] (first compound 10 µM, partner dose 10 µM)",3.65%
13,"NC(=O)c1ccc(N(C(N)=O)c2c(F)cccc2F)nc1-c1ccc(F)cc1F + O=C(O)c1ccc(-c2c[nH]c3ncc(-c4ccccc4)cc23)cc1C1CCCC1 [GSK650394] (first compound 2 µM, partner dose 0.8 µM)",103%
14,"CCCCCCCCc1ccc(CCC(N)(CO)CO)cc1 [fingolimod] + CS(=O)(=O)CCNCc1ccc(-c2ccc3ncnc(Nc4ccc(OCc5cccc(F)c5)c(Cl)c4)c3c2)o1 [lapatinib] (first compound 10 µM, partner dose 4 µM)",5.61%
15,"CC(C)(C)c1cnc(CSc2cnc(NC(=O)C3CCNCC3)s2)o1 + CN(NC(=O)CC(=O)NN(C)C(=S)c1ccccc1)C(=S)c1ccccc1 [STA4783] (first compound 0.05 µM, partner dose 0.03 µM)",15.8%
16,"CCCCCCCCc1ccc(CCC(N)(CO)CO)cc1 [fingolimod] + COc1ccc(Cl)c(Nc2nc3ccccc3nc2NS(=O)(=O)c2cccc(NC(=O)C(C)(C)N)c2)c1 [XL147] (first compound 10 µM, partner dose 4 µM)",70.4%
17,"CCCCCCCCc1ccc(CCC(N)(CO)CO)cc1 [fingolimod] + C[C@@H]1CCN(C(=O)CC#N)C[C@@H]1N(C)c1ncnc2[nH]ccc12 [CP690550] (first compound 10 µM, partner dose 5 µM)",4.15%
